# Experimental data from PubChem BioAssay AID686978 (National Center for Advancing Translational Sciences (NCATS), 2013).
# Where “and” joins values, the source holds several entries; their conditions need not be identical. Identical values can stand only once. Hit rate of the full screen: of about 420,000 compounds, about 64,000 (15%) were called active. The shares of active, inactive and inconclusive entries below differ from those in the screen. Calls come from the whole dose curve; as a rule, active = well fitted inhibition curve with a large enough effect; inconclusive = small, poorly fitted or top-dose-only effect; inactive = flat fitted curve, though single readings scatter. Potencies of inconclusive entries are left out as doubtful fits. The source holds several records for some structures; these can differ, active in one and inactive in another.
# Assay: qHTS for Inhibitors of human tyrosyl-DNA phosphodiesterase 1 (TDP1): qHTS in cells in absence of CPT; note: nearly all actives have a fitted effect of over 55% in size
# Settings: DT40 Tdp1-/- hTDP1 cells, no CPT, ATP luminescence, 48 h; activity change, negative = growth inhibition: at 46.2 µM (top of the series)
# Outline: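 Chicken DT40 Tdp1-/- cells complemented with human TDP1, screened without camptothecin (DMSO vehicle only), 400 cells/well. Compounds pin-transferred, cells incubated at 37 °C for at least 48 hr. Growth read as ATP-dependent luminescence (CellTiter-Glo, 30 min at RT).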
# % is set by controls: 0 for no effect and ±100 for the full control effect; potency is the fitted concentration of half-maximal effect; tags give direction and shape of the fitted curve.
Compound,Potency,"activity change, negative = growth inhibition"
COc1ccc(C(=O)NCC(c2ccc(N(C)C)cc2)N2CCOCC2)cc1 (stereo not given),active: 10.3 µM,–
COc1cc2c(cc1OC)C(=O)C(Br)CC2 (stereo not given),active: 4.61 µM,–
Cc1ccnc(NC(=O)C2CCN(S(=O)(=O)c3ccc(Cl)c(C(F)(F)F)c3)CC2)c1,"inconclusive [inhibitor, single point]",–
O=C(NCc1ccc(Cl)cc1)C1CCN(S(=O)(=O)c2ccc(F)cc2)CC1,inactive and active: 18.4 µM,–
CCn1cc(CN2CCCC(C(=O)Nc3cccc(-c4cc5ccccc5[nH]4)c3)C2)c(C)n1 (stereo not given),"inconclusive [inhibitor, single point]",–
COC(=O)c1ccncc1C(=O)Nc1ccc(Oc2ncc(C(F)(F)F)cc2Cl)cc1,inactive,–
O=C(Cn1ccc2ccccc2c1=O)N1CCN(Cc2ccc3c(c2)OCO3)CC1,–,inconclusive: -33.8% [inhibitor]
CCOc1ccc(NC(=O)Cn2c(=O)n(Cc3ccccc3)c(=O)c3sc4ccccc4c32)cc1,active: 9.2 µM,–
Cc1ccc(C)c(N2CCN(C(=O)c3ccc(CS(=O)(=O)c4ccccc4C)o3)CC2)c1,active: 18.4 µM,–
CCC1CCc2sc(C(=O)OCC(=O)N(CCOC)c3c(N)n(Cc4ccccc4)c(=O)[nH]c3=O)cc2C1 (stereo not given),"inconclusive [inhibitor, partial curve]",–
OC(COCCC12CC3CC(CC(C3)C1)C2)CN1CCCC1 (stereo not given),"inconclusive [inhibitor, single point]",–
C=C(C)COc1ccc(-c2n[nH]c(C)c2Oc2ccccc2OC)c(O)c1,"inconclusive [inhibitor, single point]",–
O=C(NC(C1CC1)C1CC1)C1CCC(=O)N(CCCN2CCCC2=O)C1 (stereo not given),inactive,–
Cc1cccc(Nc2nnc(SCC(=O)c3c(N)n(C4CC4)c(=O)[nH]c3=O)s2)c1,"inconclusive [inhibitor, single point]",–
CCOC(=O)N1CCN(C(=O)COc2ccc3oc4c(c3c2)CCCC4)CC1,"inconclusive [inhibitor, partial curve]",–
CCCC(=O)Nc1nnc(S(=O)(=O)N(CC)c2ccc(OC)cc2)s1,inactive,–
Cc1cc(C)cc(NC(=O)CN2C(=O)CSc3ccc(S(=O)(=O)N4CCCC4)cc32)c1,"inconclusive [inhibitor, single point]",–
CSc1ncc(Cl)c(C(=O)Nc2ccc(S(=O)(=O)N3CCOCC3)cc2)n1,inactive,–
O=C(c1ccc(Cl)c([N+](=O)[O-])c1)N1CCN(c2ccccn2)CC1,"inconclusive [inhibitor, single point]",–
CC(C)(C)c1ccc(OCC(=O)NCc2ccco2)c(Br)c1,active: 23.1 µM,–
O=[N+]([O-])c1cccc(-c2cc(-c3cc(Br)ccc3O)[nH]n2)c1,active: 20.6 µM,–
CC(NC(=O)COC(=O)Cc1ccsc1)c1ccccc1 (stereo not given),inactive,–
CC(C)(C)NC(=O)C(c1ccccc1)n1c(=O)c(-c2ccccc2)nc2ccccc21 (stereo not given),"inconclusive [inhibitor, single point]",–

Compound,Potency,"activity change, negative = growth inhibition"
C#C[C@]1(O)CC[C@H]2[C@@H]3CCC4=C(CCC(=O)C4)[C@H]3CC[C@@]21C,active: 7.18 µM,–
CCOC(=O)c1c(NC(=O)CSc2cn(CCNC(=O)c3ccccc3OC)c3ccccc23)sc2c1CCCC2,active: 23.1 µM,–
COc1ccc(CC(=O)NCc2nnc(SCC(=O)Nc3ccc(OC)cc3)n2C)cc1,inactive,–
CC1=C(c2ccc(C(C)C)cc2)S(=O)(=O)N=C1N1CCC(C(=O)NCc2ccco2)CC1,"inconclusive [inhibitor, partial curve]",–
Cc1nn(CC(=O)N2CCN(c3ccccc3)CC2)c(=O)c2cc3cc(F)ccc3n12,inactive,–
O=C(O)c1cccc(CN2C(=O)S/C(=C/c3ccccc3[N+](=O)[O-])C2=O)c1,"inconclusive [inhibitor, single point]",–
OC(c1ccc(F)c(F)c1)c1nc(-c2ccccc2)cs1 (stereo not given),"inconclusive [inhibitor, single point]",–
N#CCSc1nnc(-c2c[nH]c3ccccc23)o1,inactive,–
COc1ccccc1/C=C\C(=O)NCC(=O)N/N=C/c1cccc(OC)c1O,active: 7.31 µM,–
CCCCN(CC)CCCNC(=O)c1cc2cc3ccc(C)cc3nc2o1,inactive,–
CCc1cc2cc(C(=O)Nc3ccc(C)cc3)sc2s1,"inconclusive [inhibitor, single point]",–
CCOc1ccc(NC(=O)c2c(NC(=O)c3cccc(C)c3)sc3c2CCC3)cc1,inactive,–
CC(=O)c1ccc(OCCOc2ccc(Cl)c3cccnc23)cc1,inactive,–
Cc1c2cnn(CC(=O)Nc3cccc(C(F)(F)F)c3)c(=O)c2c(C)n1Cc1ccccc1F,"inconclusive [inhibitor, partial curve]",–
CC(=O)c1cccc(S(=O)(=O)NCC2CCCCC2)c1,"inconclusive [inhibitor, single point]",–
COc1ccc(NC(=O)C[C@H]2C(=O)N(C3CCCCC3)C[C@@H]2c2ccc(OC)cc2)cc1,"inconclusive [inhibitor, single point]",–
NC1=NC2(CCCCC2)N(c2cccc(Cl)c2)C(N)=N1,active: 0.461 µM,–
CC(C)C[C@H]1CNC(=S)N1CC1CCCN1C[C@H](Cc1ccccc1)N1C[C@H](Cc2ccccc2)N(CC2CCCCC2)C1=S (stereo not given in full),"inconclusive [inhibitor, single point]",–
CCCc1cc(=O)[nH]c(SCC(=O)Nc2ncc(S(=O)(=O)c3ccc([N+](=O)[O-])cc3)s2)n1,"inconclusive [inhibitor, single point]",–
CN1CCN(S(=O)(=O)c2ccc(NN)nc2)CC1,"inconclusive [inhibitor, single point]",–
Nc1nonc1-n1nnc(C(=O)N/N=C/c2ccc(Cl)cc2Cl)c1CN1CCCCC1,"inconclusive [inhibitor, single point]",–
COc1ccccc1N1CCN(S(=O)(=O)CCNC(=O)COc2ccc(F)cc2)CC1,"inconclusive [inhibitor, partial curve]",–
